Results taken from FireProtDB (doi:10.1021/bi00076a015).

Settings: Homo sapiens, pH 7.2, Urea, CD, Sodium phosphate 50 mM, NaCl 0.1 M, reversible: yes

Fibroblast growth factor 2 wild type (chain not printed)
denaturant m value (15 °C): 2.7 kcal/mol/M
denaturant midpoint (higher = more stable) (15 °C): 3.9 M
unfolding free energy (15 °C): 10.5 kcal/mol
denaturant m value (25 °C): 2.44 kcal/mol/M
denaturant midpoint (higher = more stable) (25 °C): 3.8 M
unfolding free energy (25 °C): 9.3 kcal/mol
denaturant m value (35 °C): 2.55 kcal/mol/M
denaturant midpoint (higher = more stable) (35 °C): 3.5 M
unfolding free energy (35 °C): 9 kcal/mol
denaturant m value (40 °C): 2.58 kcal/mol/M
denaturant midpoint (higher = more stable) (40 °C): 2.9 M
unfolding free energy (40 °C): 7.5 kcal/mol
